From US20250129053A1, “HERBICIDAL IMIDAZOLE COMPOUNDS” (SYNGENTA CROP PROTECTION AG, priority 2021, published 2025)
The name of at least one read-out is uncertain.

What was measured:
Assay type in all cases: in vivo
Conditions in all cases: 250 g/ha, evaluated after 13 days, five-point scale
[1] = test system: Ipomoea hederacea (IPOHE); experiment: Pre-emergence herbicidal glasshouse test
[2] = test system: Echinochloa crus-galli (ECHCG); experiment: Pre-emergence herbicidal glasshouse test
Setaria faberi (SETFA) [3] = experiment: Pre-emergence herbicidal glasshouse test
[4] = test system: Echinochloa crus-galli (ECHCG); experiment: Post-emergence herbicidal glasshouse test
[5] = test system: Amaranthus retroflexus (AMARE); experiment: Pre-emergence herbicidal glasshouse test
[6] = test system: Amaranthus retroflexus (AMARE); experiment: Post-emergence herbicidal glasshouse test
Setaria faberi (SETFA) [7] = experiment: Post-emergence herbicidal glasshouse test
[8] = test system: Amaranthus palmeri (AMAPA); experiment: Pre-emergence herbicidal glasshouse test
[9] = test system: Ipomoea hederacea (IPOHE); experiment: Post-emergence herbicidal glasshouse test
[10] = test system: Amaranthus palmeri (AMAPA); experiment: Post-emergence herbicidal glasshouse test

SMILES | percentage damage caused to the plant, IPOHE [1] | percentage damage caused to the plant, ECHCG [2] | percentage damage caused to the plant, SETFA (Setaria faberi (SETFA) [3]) | percentage damage caused to the plant, ECHCG [4] | percentage damage caused to the plant, AMARE [5] | percentage damage caused to the plant, AMARE [6] | percentage damage caused to the plant, SETFA (Setaria faberi (SETFA) [7]) | percentage damage caused to the plant, AMAPA [8] | percentage damage caused to the plant, IPOHE [9] | percentage damage caused to the plant, AMAPA [10]
FC(F)(F)c1ccc(-c2nc(Cl)c(Cl)n2Cc2ncc(Cl)cn2)cc1 [Compound 1.013, 5-chloro-2-[[4,5-dichloro-2-[4-(trifluoromethyl)phenyl]imidazol-1-yl]methyl]pyrimidine] | 5 (5=81-100%) | 5 (5=81-100%) | 5 (5=81-100%) | 5 (5=81-100%) | 5 (5=81-100%) | 5 (5=81-100%) | 5 (5=81-100%) | 3 (3=41-60%) | 5 (5=81-100%) | 5 (5=81-100%)
FC(F)(F)c1nc(-c2ccc(Br)cc2)n(Cc2ncc(Cl)cn2)c1Cl [Compound 1.052] | 3 (3=41-60%) | 4 (4=61-80%) | 5 (5=81-100%) | 4 (4=61-80%) | 4 (4=61-80%) | 5 (5=81-100%) | 4 (4=61-80%) | 5 (5=81-100%) | 4 (4=61-80%) | 5 (5=81-100%)
FC(F)(F)c1ccc(-c2nc(C(F)(F)F)c(Cl)n2Cc2ncc(Cl)cn2)cc1 [Compound 1.010] | 2 (2=21-40%) | 5 (5=81-100%) | 5 (5=81-100%) | 4 (4=61-80%) | 5 (5=81-100%) | 4 (4=61-80%) | 4 (4=61-80%) | 5 (5=81-100%) | 4 (4=61-80%) | 4 (4=61-80%)
FC(F)(F)c1cn(Cc2ncc(Cl)cn2)c(-c2ccccc2Cl)n1 [Compound 1.041] | 3 (3=41-60%) | 1 (1=0-20%) | 1 (1=0-20%) | 1 (1=0-20%) | 2 (2=21-40%) | 2 (2=21-40%) | 1 (1=0-20%) | 5 (5=81-100%) | 3 (3=41-60%) | 3 (3=41-60%)
Fc1cc(-c2nc(C(F)(F)F)cn2Cc2ncc(Cl)cn2)cnc1Cl [Compound 1.037, 5-chloro-2-[[2-(6-chloro-5-fluoro-3-pyridyl)-4-(trifluoromethyl)imidazol-1-yl]methyl]pyrimidine] | 5 (5=81-100%) | 5 (5=81-100%) | 5 (5=81-100%) | 4 (4=61-80%) | 5 (5=81-100%) | 5 (5=81-100%) | 5 (5=81-100%) | 5 (5=81-100%) | 4 (4=61-80%) | 5 (5=81-100%)
N#Cc1cnc(Cn2cc(C(F)(F)F)nc2-c2ccc(C(F)(F)F)cc2)nc1 [Compound 1.070] | 5 (5=81-100%) | 5 (5=81-100%) | 5 (5=81-100%) | 5 (5=81-100%) | 5 (5=81-100%) | 5 (5=81-100%) | 5 (5=81-100%) | 5 (5=81-100%) | 4 (4=61-80%) | 5 (5=81-100%)
FC(F)(F)c1ccc(-c2nc(C(F)(F)F)cn2Cc2ncc(Cl)cn2)cc1 [Compound 1.001, 5-chloro-2-[[4-(trifluoromethyl)-2-[4-(trifluoromethyl)phenyl]imidazol-1-yl]methyl]pyrimidine] | 5 (5=81-100%) | 5 (5=81-100%) | 5 (5=81-100%) | 5 (5=81-100%) | 5 (5=81-100%) | 5 (5=81-100%) | 5 (5=81-100%) | 5 (5=81-100%) | 5 (5=81-100%) | 5 (5=81-100%)
COc1cnc(Cn2cc(C(F)(F)F)nc2-c2ccc(C(F)(F)F)cc2)nc1 [Compound 1.069] | 5 (5=81-100%) | 5 (5=81-100%) | 5 (5=81-100%) | 5 (5=81-100%) | 5 (5=81-100%) | 5 (5=81-100%) | 5 (5=81-100%) | 5 (5=81-100%) | 4 (4=61-80%) | 5 (5=81-100%)
Fc1ccc(-c2nc(C(F)(F)F)cn2Cc2ncc(Cl)cn2)cc1 [Compound 1.008, 5-chloro-2-[[2-(4-fluorophenyl)-4-(trifluoromethyl)imidazol-1-yl]methyl]pyrimidine] | 5 (5=81-100%) | 5 (5=81-100%) | 5 (5=81-100%) | 5 (5=81-100%) | 5 (5=81-100%) | 5 (5=81-100%) | 5 (5=81-100%) | 5 (5=81-100%) | 5 (5=81-100%) | 5 (5=81-100%)
